In publication PMC5148169 one finds binding data, which are given here for eleven substances.

Sequences of proteins named here, by UniProt entry; tags and fusion partners are left off. A change or cut given only in a name is not applied to a line headed by its entry.
UniProt Q9NYM4: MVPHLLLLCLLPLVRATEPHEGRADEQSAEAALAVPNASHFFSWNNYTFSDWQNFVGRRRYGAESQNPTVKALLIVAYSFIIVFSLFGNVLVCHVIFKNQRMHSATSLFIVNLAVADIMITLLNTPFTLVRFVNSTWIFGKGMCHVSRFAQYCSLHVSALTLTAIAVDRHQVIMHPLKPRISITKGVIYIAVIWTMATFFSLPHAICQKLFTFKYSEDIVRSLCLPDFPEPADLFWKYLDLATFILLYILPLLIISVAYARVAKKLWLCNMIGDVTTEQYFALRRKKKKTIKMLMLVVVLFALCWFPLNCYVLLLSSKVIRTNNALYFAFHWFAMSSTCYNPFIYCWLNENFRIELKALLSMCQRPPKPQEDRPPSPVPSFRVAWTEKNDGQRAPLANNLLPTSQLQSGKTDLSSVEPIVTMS
UniProt Q92847: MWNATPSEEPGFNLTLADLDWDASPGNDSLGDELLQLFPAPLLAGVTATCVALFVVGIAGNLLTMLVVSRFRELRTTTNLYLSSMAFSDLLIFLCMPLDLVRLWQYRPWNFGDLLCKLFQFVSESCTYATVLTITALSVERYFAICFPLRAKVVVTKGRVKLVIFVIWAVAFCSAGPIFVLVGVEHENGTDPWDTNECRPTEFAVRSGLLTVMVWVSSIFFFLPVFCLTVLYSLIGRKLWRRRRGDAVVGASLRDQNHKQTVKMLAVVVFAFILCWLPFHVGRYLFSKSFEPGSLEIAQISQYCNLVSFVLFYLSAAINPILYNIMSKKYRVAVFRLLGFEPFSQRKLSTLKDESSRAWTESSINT
UniProt P41968: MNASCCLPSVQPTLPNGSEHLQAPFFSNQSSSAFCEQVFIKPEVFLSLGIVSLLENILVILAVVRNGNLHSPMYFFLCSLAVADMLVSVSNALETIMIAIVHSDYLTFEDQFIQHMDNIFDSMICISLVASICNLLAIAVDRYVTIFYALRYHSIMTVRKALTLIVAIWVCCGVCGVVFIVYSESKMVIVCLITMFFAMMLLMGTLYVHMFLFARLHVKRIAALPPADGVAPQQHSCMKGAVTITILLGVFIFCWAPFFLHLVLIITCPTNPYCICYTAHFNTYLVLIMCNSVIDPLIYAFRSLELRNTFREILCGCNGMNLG
UniProt P32245: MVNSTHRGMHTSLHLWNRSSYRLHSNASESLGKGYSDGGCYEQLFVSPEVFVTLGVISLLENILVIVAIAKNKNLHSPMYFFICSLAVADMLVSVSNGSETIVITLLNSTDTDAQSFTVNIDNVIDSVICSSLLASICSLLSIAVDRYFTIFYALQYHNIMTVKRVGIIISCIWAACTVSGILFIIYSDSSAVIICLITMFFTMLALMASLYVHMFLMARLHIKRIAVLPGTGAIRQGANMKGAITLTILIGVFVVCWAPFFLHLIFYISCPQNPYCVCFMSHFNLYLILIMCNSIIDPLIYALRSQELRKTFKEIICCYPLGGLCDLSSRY
UniProt P08483: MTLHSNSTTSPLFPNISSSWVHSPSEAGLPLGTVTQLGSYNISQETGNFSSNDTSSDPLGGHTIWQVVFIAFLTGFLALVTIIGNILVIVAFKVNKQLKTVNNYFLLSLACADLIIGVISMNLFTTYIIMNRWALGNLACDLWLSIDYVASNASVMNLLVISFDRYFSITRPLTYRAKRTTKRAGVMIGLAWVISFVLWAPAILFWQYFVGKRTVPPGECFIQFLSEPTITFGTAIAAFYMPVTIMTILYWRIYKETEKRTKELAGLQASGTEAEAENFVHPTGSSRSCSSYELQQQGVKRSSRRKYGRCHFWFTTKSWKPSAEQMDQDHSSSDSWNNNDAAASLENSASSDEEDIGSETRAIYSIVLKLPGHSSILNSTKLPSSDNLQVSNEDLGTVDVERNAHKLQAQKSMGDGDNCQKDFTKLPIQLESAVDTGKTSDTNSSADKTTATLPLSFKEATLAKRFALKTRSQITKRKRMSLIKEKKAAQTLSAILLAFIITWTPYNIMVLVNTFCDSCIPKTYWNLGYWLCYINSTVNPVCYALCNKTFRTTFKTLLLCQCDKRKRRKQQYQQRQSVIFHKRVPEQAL

These are yes or no findings as the source states them, for the method shown. For some of these results: Binding seen in cells or lysates may run through a third protein. Some results given as binding are weak or reduced against the parent protein; the word gives no strength.

The target of assay [1] is hGPR83_del17-60, N-terminal deletion variant of human GPR83, Flag-tagged (sandwich ELISA construct) (human) (UniProt Q9NYM4). Description: ELISA; sandwich ELISA: HA- and Flag-tagged constructs co-transfected in COS-7 cells, 48 h; lysates incubated 2 h in anti-Flag antibody-coated 96-well plates, HA epitope detected with biotin-labeled anti-HA antibody and peroxidase-streptavidin; % absorption (492 nm/620 nm) relative to the positive control. Background: In an ELISA, binding on a coated surface is turned into a signal by an enzyme label.

For assay [2], the target named is hGPR83_del17-60, N-terminal deletion variant of human GPR83, YFP fragment fusion (YFP-BiFC construct) (human) (UniProt Q9NYM4). Description: split reporter; YFP-BiFC: -YFP1 and -YFP2 constructs co-transfected in HEK293 cells, read 48 h after transfection; YFP-fluorescent cells counted by flow cytometry (FACS CantoII), expressed as % fluorescent cells to the positive control. Background: In flow cytometry, cells or beads pass a laser one at a time.

Assay [3] concerns the target human G-protein coupled receptor 83, wild type, Flag-tagged (sandwich ELISA construct) (human) (UniProt Q9NYM4). Description: ELISA; sandwich ELISA: HA- and Flag-tagged constructs co-transfected in COS-7 cells, 48 h; lysates incubated 2 h in anti-Flag antibody-coated 96-well plates, HA epitope detected with biotin-labeled anti-HA antibody and peroxidase-streptavidin; % absorption (492 nm/620 nm) relative to the positive control.

Assay [4] deals with human G-protein coupled receptor 83, wild type, YFP fragment fusion (YFP-BiFC construct) (human) (UniProt Q9NYM4). Description: split reporter; YFP-BiFC: -YFP1 and -YFP2 constructs co-transfected in HEK293 cells, read 48 h after transfection; YFP-fluorescent cells counted by flow cytometry (FACS CantoII), expressed as % fluorescent cells to the positive control.
The target in assay [5] is human ghrelin receptor, YFP fragment fusion (YFP-BiFC construct) (human) (UniProt Q92847). Described as above.

For the substance “hGPR83_del17-60, N-terminal deletion variant of human GPR83, Flag-tagged (sandwich ELISA construct) (from UniProt Q9NYM4 17-423) (receptor)”, in assay [1], the binding result is recorded as “binds”.

Take “hGPR83_del17-60, N-terminal deletion variant of human GPR83, YFP fragment fusion (YFP-BiFC construct) (from UniProt Q9NYM4 17-423) (receptor)”: the binding result in assay [2] was “binds”.

Regarding “human G-protein coupled receptor 83, wild type, Flag-tagged (sandwich ELISA construct) (from UniProt Q9NYM4 17-423)”, the binding entry in assay [3] was “binds”.

As for “human G-protein coupled receptor 83, wild type, YFP fragment fusion (YFP-BiFC construct) (from UniProt Q9NYM4 17-423)”, the binding result in assay [4] is “binds”.

Take “human ghrelin receptor, NHA-tagged (sandwich ELISA construct) (from UniProt Q92847 1-366)”: the binding entry in assay [1] and in assay [3] was “binds” in each case.

For the substance “human ghrelin receptor, YFP fragment fusion (YFP-BiFC construct) (from UniProt Q92847 1-366)”, the binding entry in assay [4] and in assay [2] was “binds” in each case.

Turning to “human melanocortin-3 receptor, YFP fragment fusion (YFP-BiFC construct) (from UniProt P41968 1-323)”, the binding result in assay [4], in assay [2] and in assay [5] was “binds” throughout.

Take “human melanocortin-4 receptor, NHA-tagged (sandwich ELISA construct) (from UniProt P32245 1-332)”: the binding result in assay [1] and in assay [3] was “binds” in each case.

Consider “human melanocortin-4 receptor, YFP fragment fusion (YFP-BiFC construct) (from UniProt P32245 1-332)”, for which the binding entry in assay [4] and in assay [2] was “binds” throughout.

Turning to “rat cholinergic receptor, muscarinic 3, NHA-tagged (sandwich ELISA construct) (from UniProt P08483 1-589)”, the binding entry in assay [1] and in assay [3] was “no binding” in each case.

As to “rat cholinergic receptor, muscarinic 3, YFP fragment fusion (YFP-BiFC construct) (from UniProt P08483 1-589)”, the binding entry in assay [4] and in assay [2] was “no binding” each time.
